The full ranking holds about 33,000 sequences; the median of “E-score (-0.5 to 0.5)” is about -0.012, and the highest 2% start at about 0.29. The list shows a part of the results.

This experiment addresses T1, Ybr033w (UniProt P38073).
T1 sequence: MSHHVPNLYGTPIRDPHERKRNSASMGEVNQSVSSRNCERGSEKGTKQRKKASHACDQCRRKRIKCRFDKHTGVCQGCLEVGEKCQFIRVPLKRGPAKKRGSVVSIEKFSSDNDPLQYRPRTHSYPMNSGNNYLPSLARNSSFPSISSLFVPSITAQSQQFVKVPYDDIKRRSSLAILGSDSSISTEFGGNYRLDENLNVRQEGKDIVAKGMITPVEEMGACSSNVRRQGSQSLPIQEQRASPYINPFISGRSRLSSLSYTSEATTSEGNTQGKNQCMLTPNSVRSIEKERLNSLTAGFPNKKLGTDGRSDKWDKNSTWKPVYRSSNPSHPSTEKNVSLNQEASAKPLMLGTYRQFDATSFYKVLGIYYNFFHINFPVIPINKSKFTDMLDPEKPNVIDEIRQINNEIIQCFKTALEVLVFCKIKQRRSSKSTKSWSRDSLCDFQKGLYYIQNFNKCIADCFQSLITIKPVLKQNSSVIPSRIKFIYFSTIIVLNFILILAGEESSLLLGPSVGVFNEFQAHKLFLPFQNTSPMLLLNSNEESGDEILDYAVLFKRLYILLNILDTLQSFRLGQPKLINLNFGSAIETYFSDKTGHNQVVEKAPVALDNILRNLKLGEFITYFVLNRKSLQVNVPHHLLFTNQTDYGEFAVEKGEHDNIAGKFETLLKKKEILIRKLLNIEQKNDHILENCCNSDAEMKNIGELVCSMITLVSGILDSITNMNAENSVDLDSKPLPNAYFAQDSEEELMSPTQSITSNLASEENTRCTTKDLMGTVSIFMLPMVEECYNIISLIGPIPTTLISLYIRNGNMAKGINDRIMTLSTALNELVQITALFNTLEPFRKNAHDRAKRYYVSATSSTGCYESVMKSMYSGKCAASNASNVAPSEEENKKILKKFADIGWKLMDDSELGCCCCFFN
The experiment in a line: PBM E-score (8-mer binding enrichment) (E-score (-0.5 to 0.5)); higher = stronger / more preferred TF binding; most listed sequences are background and not binding sites. Conditions: protein concentration: 200 nM; construct: GST-full length. The gist of the method: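 Yeast transcription factors carrying a GST tag, as full-length proteins or DNA-binding domains, were produced by PURExpress in vitro transcription/translation. About 100-200 nM protein was applied to universal all-10-mer Agilent arrays, double-stranded by primer extension on fresh or once-stripped slides. Bound protein was detected with fluorescent anti-GST, and scans were normalised with masliner. The Universal PBM Analysis Suite gave each ungapped eight-base word, pooled with its reverse complement, an E-score, a modified Wilcoxon-Mann-Whitney statistic.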
Turning to CAGAGGCG, the “PBM E-score” value was -0.164.
TAGTTACA: the “PBM E-score” value was 0.0282.
For CAGTCTTC the value was -0.146; for AAGTGAAT, 0.239.
For CTCGCCAG, the “PBM E-score” value is -0.0879.
As to GTCCGGAC, the “PBM E-score” value turned out to be 0.182.
On to CACCCGGC, for which the “PBM E-score” value was -0.293.
For AGAATGAC the value was -0.00516; for ACCAATCG, 0.00659; for ACCTCAGG, -0.12.
Regarding GTTCCAAC, the “PBM E-score” value amounted to 0.0406.
Take ACTCGCTG: the “PBM E-score” value is -0.0449.
With GAAGGAAC, the “PBM E-score” value worked out at 0.0576.
In the case of TGCCGCCA it was -0.168; in that of AATCAGAT, 0.108.
In the case of AAGTCGGA, the “PBM E-score” value is 0.00463.
On to AGCTCGAG, for which the “PBM E-score” value was -0.142.
For AACTAGAC the value was 0.0442; for CGTATACG, 0.0447; for GTCATATA, 0.223.
Take GAGCGCAC: the “PBM E-score” value is -0.202.
For ATCAGGCC, the “PBM E-score” value was -0.0759.
Take GAATTTCC: the “PBM E-score” value was 0.343.
In the case of GGATATGA it was 0.0606; in that of CGGAAGAG, -0.108; in that of ACCTACGG, -0.134.
For the sequence ACAAACTC, the “PBM E-score” value was found to be 0.197.
With AAAAATAC, the “PBM E-score” value was 0.304.
Turning to CTCTCGAA, the “PBM E-score” value came to 0.0225.
Consider GTGAACTA, for which the “PBM E-score” value was determined as 0.163.
For GCCCGCCC the value was -0.263.
For CACAGTAA, the “PBM E-score” value is 0.258.
On to GTTAACCA, for which the “PBM E-score” value was 0.0327.
For GAAAGTGC the value was -0.232.
Regarding GCTGAGCA, the “PBM E-score” value is 0.0674.
For GAGCGACA the value was -0.045.
For CTTTAAGA the value was 0.109; for ATGGGTGG, -0.223.
In the case of ACGCAGAC, the “PBM E-score” value was -0.00797.
ACCGTTCA: the “PBM E-score” value was -0.0307.
For ATGTGACG, the “PBM E-score” value was -0.00619.
Regarding GTGCAAGA, the “PBM E-score” value came out at 0.127.
Consider ACTCACAT, for which the “PBM E-score” value worked out at 0.00706.
In the case of CTCGATAA it was 0.178; in that of AAAAGAAC, 0.146; in that of AGACACAT, 0.0512.
In the case of CCCCGTCG it was -0.369; in that of ACATTTGG, -0.039.
As for GCACAGAC, the “PBM E-score” value was -0.0221.
As to CGAAGGTA, the “PBM E-score” value was -0.00104.
For GTAGCTGA the value was -0.0101.
As to ATAAAGGA, the “PBM E-score” value is -0.0287.
On to GACCTGTA, for which the “PBM E-score” value is -0.0342.
CCAATAAA: the “PBM E-score” value is 0.153.
Turning to AGTAGCGA, the “PBM E-score” value was found to be 0.121.
In the case of AGTCCGGA it was 0.165; in that of GGAAGCTA, 0.0951; in that of CTGGTTGA, -0.129.
Regarding CAGTATGA, the “PBM E-score” value came to 0.133.
In the case of ACGGCATG it was -0.222; in that of AGACACAG, -0.0703; in that of CACCACGA, 0.101.
On to CGGTATGC, for which the “PBM E-score” value was -0.207.
With AAAATAAT, the “PBM E-score” value is 0.319.
For GCTTTTAA the value was -0.105; for CTAAAATC, 0.0682; for TGAAATAA, 0.153.
For TACGAGAA the value was 0.0575; for CCGCATCG, -0.252.
In the case of TCGCGAAA, the “PBM E-score” value amounted to 0.078.
In the case of GTGGTACA it was -0.0296; in that of CGCGTGAC, -0.0125.
For AACAGGAG the value was -0.109; for ACGTTCTA, -0.0975; for AAGGCAAA, 0.148.
In the case of AGATTTCC it was 0.135; in that of CGACATCC, -0.269; in that of CAACGGGA, 0.0409.
Consider ACCGCTTG, for which the “PBM E-score” value was -0.0102.
Turning to AGTAGAAT, the “PBM E-score” value stood at 0.207.
For GCCGACTA the value was 0.00713.
For CTGGTCTA the value was -0.114; for CTGCGCTA, -0.0654; for GCCGGAGA, 0.0683.
In the case of CCATGACG it was 0.0307; in that of GCCTCCAA, -0.0121.

These data come from the supplement of paper PMC3334620.
